Results as given in patent EP0745599A2, “1-(3-Heterocyclylphenyl)-s-triazine-2,4,6-oxo or thiotrione herbicidal agents” (American Cyanamid Company, priority 1995, dated 1996).
The name of at least one read-out is uncertain.

Columns and labels:
Assay type in all cases: in vivo
Details in all cases: rated four to five weeks after treatment
[1] = tested on: SETARIA VIRIDIS, (L) BEAU; assay: Preemergence herbicidal evaluation, SETVI (Foxtail, Green)
From the text: (§1) Results of herbicide evaluation are expressed on a rating scale (0-9). The scale is based upon a visual observation of plant stand, vigor, malformation, size, chlorosis and overall plant appearance as compared with a control.
(§2) The preemergence herbicidal activity of the test compounds of the present invention is exemplified by the following tests in which the seeds of a variety of monocotyledonous and dicotyledonous plants are separately mixed with potting soil and planted on top of approximately one inch of soil in separate pint cups. After planting, the cups are sprayed with the selected aqueous acetone solution containing test compound in sufficient quantity to provide the equivalent of about 0.125 to 0.50 kg per hectare of test compound per cup. The treated cups are then placed on greenhouse benches, watered and cared for in accordance with conventional greenhouse procedures. From four to five weeks after treatment, the tests are terminated and each cup is examined and rated according to the rating system provided in Example 42.

[2] = tested on: ECHINOCHLOA CRUS-GALLI, (L) BEAU; assay: Postemergence herbicidal evaluation, ECHCG (Barnyardgrass)
Method: In the tests, seedling plants are grown in jiffy flats for about two weeks. The test compounds are dispersed in 50/50 acetone/water mixtures containing 0.5% TWEEN®20, a polyoxyethylene sorbitan monolaurate surfactant of Atlas Chemical Industries, in sufficient quantities to provide the equivalent of about 0.125 kg to 0.500 kg per hectare of active compound when applied to the plants through a spray nozzle operating at 40 psi for a predetermined time. After spraying, the plants are placed on greenhouse benches and are cared for in the usual manner, commensurate with conventional greenhouse practices. From four to five weeks after treatment, the seedling plants are examined and rated according to the rating system set forth below. Where more than one test is involved for a given compound, the data are averaged.
as §1

[3] = tested on: ORYZA SATIVA, L. TEBONNET; assay: Postemergence herbicidal evaluation, ORYSAT (Rice, Tebonnet)
Method in brief: (§3)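 Visual 0–9 ratings against untreated control, taken four to five weeks post-spray, score stand, vigor, malformation, size, chlorosis and overall appearance. Treatment was a postemergence spray at about 0.125 to 0.500 kg/ha on roughly two-week-old seedlings.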

[4] = tested on: ABUTILON THEOPHRASTI, MEDIC.; assay: Preemergence herbicidal evaluation, ABUTH (Velvetleaf)
From the text: as §1, §2

[5] = tested on: CASSIA OBTUSIFOLIA, L.; assay: Preemergence herbicidal evaluation, CASOB (Sicklepod)
From the text: as §1, §2

[6] = tested on: GALIUM APARINE; assay: Postemergence herbicidal evaluation, GALAP (Galium)
[7] = tested on: SETARIA VIRIDIS, (L) BEAU; assay: Postemergence herbicidal evaluation, SETVI (Foxtail, Green)
Method in brief: as §3

[8] = tested on: GLYCINE MAX(L)MERR. CV. WILLIAMS; assay: Postemergence herbicidal evaluation, GLXMAW (Soybean, Williams)
Method in brief: as §3

[9] = tested on: ZEA MAYS L.; assay: Postemergence herbicidal evaluation, ZEAMX (Corn, Field)
Method in brief: as §3

[10] = tested on: AMBROSIA ARTEMISIIFOLIA, L.; assay: Preemergence herbicidal evaluation, AMBEL (Ragweed, Common)
From the text: as §1, §2

[11] = tested on: CASSIA OBTUSIFOLIA, L.; assay: Postemergence herbicidal evaluation, CASOB (Sicklepod)
Method in brief: as §3

[12] = tested on: CHENOPODIUM ALBUM, L.; assay: Postemergence herbicidal evaluation, CHEAL (Lambsquarters, Common)
Method in brief: as §3

[13] = tested on: IPOMOEA SPP.; assay: Postemergence herbicidal evaluation, IPOSS (Morningglory Spp.)
[14] = tested on: ECHINOCHLOA CRUS-GALLI, (L) BEAU; assay: Preemergence herbicidal evaluation, ECHCG (Barnyardgrass)
From the text: as §1, §2

[15] = tested on: TRITICUM AESTIVUM, CV. APOLLO; assay: Postemergence herbicidal evaluation, TRZAWO (Wheat, Winter, CV. APOLLO)
Method in brief: as §3

[16] = tested on: IPOMOEA SPP.; assay: Preemergence herbicidal evaluation, IPOSS (Morningglory Spp.)
From the text: as §1, §2

[17] = tested on: AMBROSIA ARTEMISIIFOLIA, L.; assay: Postemergence herbicidal evaluation, AMBEL (Ragweed, Common)
Method in brief: as §3

COC(=O)Cn1c(=O)n(C)c(=O)n(-c2cc(N3C(=O)C4=C(CCCC4)C3=O)c(F)cc2Cl)c1=O [Compound 1, Methyl 3-[2-Chloro-5-(1-cyclohexene-1,2-dicarboximido)-4-fluorophenyl]tetrahydro-5-methyl-2,4,6-trioxo-s-triazine-1(2H)-acetate]
Herbicide rating (0-9) SETVI ([1]; 0.125 kg/ha): 2.0 | Herbicide rating (0-9) SETVI ([1]; 0.250 kg/ha): 2.0 | Herbicide rating (0-9) SETVI ([1]; 0.500 kg/ha): 4.0 | Herbicide rating (0-9) ECHCG ([2]; 0.125 kg/ha): 0.0 | Herbicide rating (0-9) ECHCG ([2]; 0.250 kg/ha): 0.0 | Herbicide rating (0-9) ECHCG ([2]; 0.500 kg/ha): 1.0 | Herbicide rating (0-9) ORYSAT ([3]; 0.125 kg/ha): 3.5 | Herbicide rating (0-9) ORYSAT ([3]; 0.250 kg/ha): 4.5 | Herbicide rating (0-9) ORYSAT ([3]; 0.500 kg/ha): 4.5 | Herbicide rating (0-9) ABUTH ([4]; 0.125 kg/ha): 0.0 | Herbicide rating (0-9) ABUTH ([4]; 0.250 kg/ha): 9.0 | Herbicide rating (0-9) ABUTH ([4]; 0.500 kg/ha): 8.0 | Herbicide rating (0-9) CASOB ([5]; 0.125 kg/ha): 5.0 | Herbicide rating (0-9) CASOB ([5]; 0.250 kg/ha): 5.0 | Herbicide rating (0-9) CASOB ([5]; 0.500 kg/ha): 6.0 | Herbicide rating (0-9) GALAP ([6]; 0.125 kg/ha): 3.0 | Herbicide rating (0-9) GALAP ([6]; 0.250 kg/ha): 3.0 | Herbicide rating (0-9) GALAP ([6]; 0.500 kg/ha): 4.0 | Herbicide rating (0-9) SETVI ([7]; 0.125 kg/ha): 0.0 | Herbicide rating (0-9) SETVI ([7]; 0.250 kg/ha): 0.0 | Herbicide rating (0-9) SETVI ([7]; 0.500 kg/ha): 2.0 | Herbicide rating (0-9) GLXMAW ([8]; 0.125 kg/ha): 5.0 | Herbicide rating (0-9) GLXMAW ([8]; 0.250 kg/ha): 6.5 | Herbicide rating (0-9) GLXMAW ([8]; 0.500 kg/ha): 7.0 | Herbicide rating (0-9) ZEAMX ([9]; 0.125 kg/ha): 4.5 | Herbicide rating (0-9) ZEAMX ([9]; 0.250 kg/ha): 4.5 | Herbicide rating (0-9) ZEAMX ([9]; 0.500 kg/ha): 5.0 | Herbicide rating (0-9) AMBEL ([10]; 0.125 kg/ha): 0.0 | Herbicide rating (0-9) AMBEL ([10]; 0.250 kg/ha): 0.0 | Herbicide rating (0-9) AMBEL ([10]; 0.500 kg/ha): 4.0 | Herbicide rating (0-9) CASOB ([11]; 0.125 kg/ha): 5.0 | Herbicide rating (0-9) CASOB ([11]; 0.250 kg/ha): 7.0 | Herbicide rating (0-9) CASOB ([11]; 0.500 kg/ha): 7.0 | Herbicide rating (0-9) CHEAL ([12]; 0.125 kg/ha): 2.0 | Herbicide rating (0-9) CHEAL ([12]; 0.250 kg/ha): 3.0 | Herbicide rating (0-9) CHEAL ([12]; 0.500 kg/ha): 4.0 | Herbicide rating (0-9) IPOSS ([13]; 0.125 kg/ha): 8.0 | Herbicide rating (0-9) IPOSS ([13]; 0.250 kg/ha): 9.0 | Herbicide rating (0-9) IPOSS ([13]; 0.500 kg/ha): 8.0 | Herbicide rating (0-9) ECHCG ([14]; 0.125 kg/ha): 0.0 | Herbicide rating (0-9) ECHCG ([14]; 0.250 kg/ha): 0.0 | Herbicide rating (0-9) ECHCG ([14]; 0.500 kg/ha): 3.0 | Herbicide rating (0-9) TRZAWO ([15]; 0.125 kg/ha): 4.0 | Herbicide rating (0-9) TRZAWO ([15]; 0.250 kg/ha): 5.5 | Herbicide rating (0-9) TRZAWO ([15]; 0.500 kg/ha): 5.5 | Herbicide rating (0-9) IPOSS ([16]; 0.125 kg/ha): 0.0 | Herbicide rating (0-9) IPOSS ([16]; 0.250 kg/ha): 2.0 | Herbicide rating (0-9) IPOSS ([16]; 0.500 kg/ha): 0.0 | Herbicide rating (0-9) AMBEL ([17]; 0.125 kg/ha): 7.0 | Herbicide rating (0-9) AMBEL ([17]; 0.250 kg/ha): 9.0 | Herbicide rating (0-9) AMBEL ([17]; 0.500 kg/ha): 9.0
